Source: the supplement of paper PMC8285479
Several values for one entry are separate records, joined by “and”; a condition that tells them apart may be missing. Equal values may be shown once. Where a name gives a salt, the structure may show the parent alone. ± gives the standard deviation of the averaged measurements. The full ranking holds about 1,900 compounds; the median of “normalised cell viability (NPI; 0 = phenylarsine oxide control, 1 = DMSO control)” is about 1, and the lowest 2% start at about 0.039. The list shows a part of the results.

System: NCI-H1944
Assay: normalised cell viability (NPI; 0 = phenylarsine oxide control, 1 = DMSO control) (fraction of DMSO control); NCI-H1944 is a non-small cell lung cancer line; higher = more viable cells (less compound toxicity)
Conditions: 6 days
[1] = glucocorticoid arm: hydrocortisone 2.75 uM co-treatment, compound 1 µM
[2] = glucocorticoid arm: hydrocortisone 2.75 uM co-treatment, compound 5 µM
[3] = glucocorticoid arm: hydrocortisone 2.75 uM pre-treated 2 days and continued, compound 1 µM
[4] = glucocorticoid arm: hydrocortisone 2.75 uM pre-treated 2 days and continued, compound 5 µM
[5] = glucocorticoid arm: vehicle, compound 1 µM
[6] = glucocorticoid arm: vehicle, compound 5 µM
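Note: CTB read-out in 384-well plates, mean of triplicate wells, normalised per plate against 1 µM phenylarsine oxide and 0.1% DMSO, compounds added 24 h after seeding.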

Compound	normalised cell viability [1]	normalised cell viability [2]	normalised cell viability [3]	normalised cell viability [4]	normalised cell viability [5]	normalised cell viability [6]
CC(CCc1ccccc1)NCC(O)c1ccc(O)c(C(N)=O)c1 (configuration not stated) [Labetalol HCl]	1.023 ± 0.0058	1.02 ± 0.029	1.03 ± 0.021	1.02 ± 0.022	0.994 ± 0.016	0.992 ± 0.016
CC(CCc1ccccc1)NCC(O)c1ccc(O)c(C(N)=O)c1 (configuration not stated) [Labetalol hydrochloride]	1.01 ± 0.011	1 ± 0.043	0.997 ± 0.015	0.9877 ± 0.006	1.007 ± 0.0058	1.004 ± 0.0098
Cc1oncc1C(=O)Nc1ccc(C(F)(F)F)cc1 [Leflunomide]	0.9777 ± 0.0085	0.913 ± 0.035	0.987 ± 0.0072	0.844 ± 0.19	0.9927 ± 0.0064	0.991 ± 0.0082
O=C(O)c1cccnc1Nc1cccc(C(F)(F)F)c1 [Niflumic acid]	–	1.01	1.02	–	1.02 and 1.01	–
CN(C)/N=N/c1[nH]cnc1C(N)=O [Dacarbazine]	0.979 ± 0.02	0.844 ± 0.016	1 ± 0.012	0.93 ± 0.014	1 ± 0.0095	0.9693 ± 0.005
CCCCCC[C@@H]([C@@H](C)O)n1cnc2c(N)ncnc21 [erythro-9-(2-Hydroxy-3-nonyl)adenine hydrochloride]	0.999 ± 0.001	0.992 ± 0.024	0.987 ± 0.012	0.997 ± 0.023	0.973 ± 0.0053	0.9777 ± 0.0055
C[N+](C)(C)CCCCCC[N+](C)(C)C [Hexamethonium dichloride]	1.002 ± 0.0076	0.991 ± 0.027	0.9997 ± 0.009	1.01 ± 0.019	0.9937 ± 0.0055	0.9913 ± 0.0011
C[N+](C)(C)CCCCCC[N+](C)(C)C [Hexamethonium bromide]	1.01 ± 0.01	1.01	1.013 ± 0.0058	1.03 ± 0.017	1.001 ± 0.009	1.003 ± 0.0058
CCCCCCCCc1ccc(-c2ccc(C(=O)O)cc2)cc1	0.994 ± 0.027	0.987 ± 0.012	0.891 ± 0.19	0.967 ± 0.013	1.027 ± 0.0058	1.02 ± 0.011
CC[N+](C)(C)Cc1ccccc1Br [Bretylium tosylate]	0.9943 ± 0.0032	1.01 ± 0.02	1.01 ± 0.015	1.01 ± 0.014	0.9903 ± 0.0035	1.007 ± 0.0058
Cn1cc(-c2ccc3ncc(Cc4ccc5ncccc5c4)n3n2)cn1	0.964 ± 0.012	0.946 ± 0.023	0.93 ± 0.018	0.896 ± 0.018	0.995	0.992 ± 0.015
Cc1cc(NC(=O)Nc2ccc(N(C)C)cc2)c2cc(F)cc(F)c2n1	1.017 ± 0.0058	1.02 ± 0.011	1.023 ± 0.0058	1.04 ± 0.026	1.001 ± 0.0081	0.992 ± 0.0036
COc1ccc(COc2cc3oc(=O)c4cc(C(C)O)ccc4c3cc2OC)cc1 (configuration not stated) [Palomid 529]	1.01 ± 0.018	0.942 ± 0.038	0.97 ± 0.019	0.96 ± 0.017	1.003 ± 0.0061	0.992 ± 0.0056
O=C(O)c1ccccc1Nc1cccc(OCc2ccc3ccccc3n2)c1	1.01	1.043 ± 0.0058	1.03 ± 0.032	1.04 ± 0.02	1.013 ± 0.0058	1.033 ± 0.0058
O=C1CCc2c(ccc3ccccc23)O1 [Splitomicin]	1 ± 0.024	1.01 ± 0.018	1 ± 0.013	0.999 ± 0.025	1 ± 0.011	1.006 ± 0.0097
CC[C@@H]1C(=O)N(C)c2cnc(Nc3ccc(C(=O)NC4CCN(C)CC4)cc3OC)nc2N1C1CCCC1	0.535 ± 0.026	0.4 ± 0.057	0.797 ± 0.042	0.592 ± 0.083	0.0889 ± 0.011	0.0658 ± 0.0046
Cn1c(=O)c2c(ncn2C)n(C)c1=O [Caffeine]	1.007 ± 0.0058	1.01 ± 0.02	1.01	1.02	1 ± 0.016	1.013 ± 0.0058
Cc1c(OCC(F)(F)F)ccnc1C[S+]([O-])c1nc2ccccc2[nH]1 (configuration not stated) [Lansoprazole]	1.01 ± 0.01	1.02 ± 0.011	1.01 ± 0.01	1 ± 0.017	1.006 ± 0.0069	1.01 ± 0.01

Compound	normalised cell viability [1]	normalised cell viability [2]	normalised cell viability [3]	normalised cell viability [4]	normalised cell viability [5]	normalised cell viability [6]
[N-]=[N+]=Nc1ccc(C(=O)CSC[C@H](NC(=O)CC[C@H](N)C(=O)O)C(=O)NCC(=O)O)cc1 [S-(p-Azidophenacyl)glutathione]	1.017 ± 0.0058	0.814 ± 0.0099	0.9947 ± 0.0067	1 ± 0.021	0.988 ± 0.014	0.517 ± 0.38
CC(C)(C)NCC(O)c1ccc(O)c(CO)c1 (configuration not stated) [Salbutamol]	1.013 ± 0.0058	1.02 ± 0.015	0.893 ± 0.22	1.03 ± 0.015	1.027 ± 0.0058	1.02
CC(C)(C)NCC(O)c1ccc(O)c(CO)c1 (configuration not stated) [Albuterol hemisulfate]	1.01 ± 0.012	1.01 ± 0.012	1.05 ± 0.064	1.01 ± 0.017	0.9877 ± 0.0045	0.988 ± 0.008
CO[C@H]1C[C@@H]2CC[C@@H](C)[C@@](O)(O2)C(=O)C(=O)N2CCCC[C@H]2C(=O)O[C@H]([C@H](C)C[C@@H]2CC[C@@H](OP(C)(C)=O)[C@H](OC)C2)CC(=O)[C@H](C)/C=C(\C)[C@@H](O)[C@@H](OC)C(=O)[C@H](C)C[C@H](C)/C=C/C=C/C=C/1C [Deforolimus (Ridaforolimus)]	0.801 ± 0.064	1.06 ± 0.011	0.812 ± 0.025	1.04 ± 0.029	0.734 ± 0.024	1.02 ± 0.01
CCCCCCCC/C=C\CCCCCCCC(=O)O [Oleic Acid]	1.017 ± 0.0058	1.03 ± 0.036	1.02 ± 0.01	1.06 ± 0.085	0.9927 ± 0.0021	1.01 ± 0.013
CN(C)[C@@H](CCOc1cccc2ccccc12)c1ccccc1 [Dapoxetine HCl]	1.005 ± 0.0087	0.957 ± 0.016	1 ± 0.02	0.981 ± 0.017	1.003 ± 0.0058	0.9967 ± 0.0021
Nn1nnc2ccccc21 [1-Aminobenzotriazole]	0.9867 ± 0.0081	0.9897 ± 0.0045	0.978 ± 0.007	0.987 ± 0.0071	0.981 ± 0.0092	0.982 ± 0.007
CN(C)CCCC1(c2ccc(F)cc2)OCc2cc(C#N)ccc21 (configuration not stated) [Citalopram hydrobromide]	1.01 ± 0.017	0.986 ± 0.021	1.013 ± 0.0058	1.02 ± 0.014	0.995 ± 0.0046	1.001 ± 0.009
CCCC(CCC)C(=O)O [Valproic acid sodium]	1.006 ± 0.0069	1.01 ± 0.03	1.007 ± 0.0058	1.05 ± 0.086	1.006 ± 0.0075	1.01 ± 0.016
CCCC(CCC)C(=O)O [Valproic acid sodium salt (Sodium valproate)]	0.9867 ± 0.0059	1.01 ± 0.011	0.9627 ± 0.009	0.9923 ± 0.0093	0.9943 ± 0.0051	0.9997 ± 0.009
CCCC(CCC)C(=O)O [Valproic acid]	1.01 ± 0.021	1.03 ± 0.02	1.01 ± 0.02	1.01 ± 0.025	1.002 ± 0.0099	1.01 ± 0.013
COc1ccccc1CNCCCCCCNCCCCCCCCNCCCCCCNCc1ccccc1OC [Methoctramine tetrahydrochloride]	1 ± 0.016	0.925 ± 0.019	1.03 ± 0.015	1.06 ± 0.061	1.001 ± 0.0081	1 ± 0.016
CCOC(=O)C1=CN(Cc2ccccc2)C=C(C(=O)OCC)C1c1ccccc1	0.995 ± 0.018	1.01 ± 0.026	1 ± 0.019	1.01 ± 0.021	0.993 ± 0.0059	1.003 ± 0.01
O=C(NC1CCNCC1)c1n[nH]cc1NC(=O)c1c(Cl)cccc1Cl	0.225 ± 0.03	0.0298 ± 0.0013	0.349 ± 0.039	0.149 ± 0.015	0.0396 ± 0.029	0.0072 ± 0.00086
C[C@H](NC(=O)/C(C#N)=C/c1ccc(O)c(O)c1)c1ccccc1 [Tyrphostin AG 835]	1.006 ± 0.0069	0.975 ± 0.012	1.01 ± 0.031	1.02 ± 0.02	1.013 ± 0.0058	1.013 ± 0.0058
CC(C)(C)c1cc(/C=C(\C#N)C(N)=S)cc(C(C)(C)C)c1O [Tyrphostin AG 879]	0.99933 ± 0.00058	1.03 ± 0.011	1.04 ± 0.062	1.04 ± 0.011	0.9957 ± 0.0035	0.9973 ± 0.0023
CC(C)(C)c1cc(/C=C(\C#N)C(N)=S)cc(C(C)(C)C)c1O [Tyrphostin AG 879 (AG 879)]	0.998 ± 0.013	1.03 ± 0.027	1.005 ± 0.0092	1.023 ± 0.0058	0.992 ± 0.011	0.9943 ± 0.0042
